Some of the results follow.
Test system: T1, C. trachomatis L2/434/Bu expressing GFP (CTL2-GFP)
T1 construct: L2/434/Bu GFP intracellular growth in HeLa cells
Parameters: species or system HeLa; C. trachomatis total inclusion area by high-content imaging, normalised to DMSO
Conditions: total inclusion area; 28.5 h, 10 µM; inhibitor
Procedure, shortened: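 Imaging read-out: GFP inclusions and Hoechst nuclei captured by high-content imaging after fixation. Inclusion area/number = chlamydial growth; nuclei count = host cell viability. MIC calculated per earlier method.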

In order of rising “% of control remaining” value:
1. Cc1ccc(C)c(OCCN(C)c2cc(C3CC(N)C3)nc(N)n2)c1 (stereo not shown) [CBK307695]  1.817
2. COc1ccc(-c2csc(N3CCN(C)CC3)n2)cc1F [CBK305910]  25.5307
3. Cc1cccc(-c2ccc(CC3(C(N)=O)CCN(C(=O)CCc4ccccc4)CC3)cc2)c1 [CBK285796]  41.2393
4. O=C(C1CCCN1)N1CC2(CCCC2)c2c(F)cccc21 (stereo not shown) [CBK304489]  52.1994
5. Cc1nc(-c2ccc(Cl)cc2)sc1C(=O)N1CCCC(C(=O)O)C1 (stereo not shown) [CBK304407]  53.6296
6. Cc1ncccc1OC1(C(=O)NCc2cn3c(n2)SCC3)CCNCC1 [CBK307649]  59.0204
7. CN1CCN(CCCOc2ccccc2OCc2ccccc2)CC1 [CBK269630C]  61.7726
8. O=C1CN(C(=O)c2cccc(Cl)c2)c2ccccc2N1 [CBK017844]  62.9485
9. CC(=O)Nc1ccc(NC(=O)CC2(CC(=O)O)CCCC2)cc1 [CBK296931]  63.3184
10. CCNc1nc(C#N)nc(Nc2ccccc2)n1 [CBK027733]  70.2291
11. O=C(Nc1ccc2oc(-c3cccnc3)nc2c1)c1ccc(-c2ccc(OC(F)(F)F)cc2)o1 [CBK107713]  70.3749
12. CN1CCN(Cc2nc3c([nH]2)c(=O)n(C)c(=O)n3C)CC1 [CBK269578]  72.8338
13. CCOC(=O)CN(Cc1ccccc1)Cc1cccc(OC)c1 [CBK126459]  73.3068
14. Cc1nc(NCCN2CCCC(CO)C2)nc2c1CCCC2 (stereo not shown) [CBK307430]  73.6958
15. CC1CCCCN1CCCNC(=O)c1ccc(-c2nc(-c3ccc(C#N)cc3)cnc2N)cc1 (stereo not shown) [CBK107139]  76.0297
16. Cc1cc(OC(C)C(=O)NCc2ccccn2)ccc1Cl (stereo not shown) [CBK269617]  76.5701
17. CC1=CCC(C(=O)O)C(C(=O)Nc2ccccc2NC(=O)c2ccc(C(F)(F)F)cc2)C1 (stereo not shown) [CBK265794]  77.4618
18. CCOc1ccccc1CCNS(=O)(=O)c1ccc(Cl)c(Cl)c1 [CBK043610]  77.9879
19. CCS(=O)(=O)N1CCC(c2onc3c2CCCCC3)CC1 [CBK284497]  78.5139
20. Cc1noc(C)c1NC(=O)c1ccc2ccccc2n1 [CBK200309]  78.6361
21. CCC(C)(C)C1CCc2c(sc(NC(=O)CN3CCOCC3)c2C#N)C1 (stereo not shown) [CBK270048]  80.0317
22. CSc1nc(Cl)c(-c2ccccc2)c(N(C)C)n1 [CBK023169]  80.7136
23. CCC(=O)Nc1ccc(-c2csc(N(C)C)n2)cc1 [CBK304294C]  80.8096
24. CC(C)NC(=O)[C@H]1CN(C(=O)c2cc[nH]n2)C[C@@H]1c1ccnc(N2CCCC2)n1 [CBK285526]  81.7307
25. Cc1nn(-c2ccccc2)c2[nH]c(=O)c(CNC(C)(C)C)cc12 [CBK282921]  81.7603
26. Cc1ccc2c(c1)-c1c(ssc1=S)C(C)(C)N2C(=O)COc1nc2ccccc2s1 [CBK262682]  82.3967
27. CCc1nnc(NS(=O)(=O)c2ccc(NC(=O)c3ccc(Cl)cc3Cl)cc2)s1 [CBK045493]  82.9447
28. O=C(NCc1cccnc1)C1CCC(Cn2c(=S)[nH]c3ccccc3c2=O)CC1 (stereo not shown) [CBK266678]  83.699
29. CC(=O)Nc1ccc(-c2nc3ncccc3o2)cc1C [CBK288132]  84.0941
30. COc1ccc(CNCCN2CCOCC2)c(OC)c1 [CBK278180C]  84.4265
31. CN1CCN(CCCCOc2ccc(Cc3ccccc3)cc2)CC1 [CBK269692C]  86.1303
32. O=CN1CCc2c([nH]c3ccccc23)C12CCN(CCCN1C(=O)C3CCCCC3C1=O)C2 (stereo not shown) [CBK039592]  86.6022
33. Cc1nc(C2CCN(C(=O)CCC3CCCO3)CC2)c2sccn12 (stereo not shown) [CBK282240]  87.0512
34. C=CCn1c2cc(C)sc2c2cnn(CCC(C)=O)c(=O)c21 [CBK282868]  87.1132
35. O=C(Nc1ccc(S(=O)(=O)Nc2ncccn2)cc1)c1ccc(Cl)c([N+](=O)[O-])c1 [CBK263739]  87.3913
36. COc1ccccc1NC(=O)c1[nH]nc(O)c1Cc1c(Cl)cccc1Cl [CBK107846]  91.4886
37. CCc1nc2ccc(C(=O)NC3=NN(c4ccccc4)C(=O)C3)cn2c1N(C)Cc1cccs1 [CBK145557]  93.2572
38. O=C(O)C1=CC(c2ccc(O)cc2)n2ncnc2N1 (stereo not shown) [CBK286545]  93.2675
39. CSCCC(=O)N1CCN(C(=O)c2ccco2)CC1 [CBK144468]  94.2022
40. O=C(CCS(=O)(=O)c1ccc(Br)cc1)OCC(=O)c1ccccc1 [CBK021886]  95.4262
41. C=CCn1c(N2CCC(C(=O)NC3CC3)CC2)nc2ccccc21 [CBK283924]  95.655
42. COc1ccc(S(=O)(=O)N(C)CC(=O)Nc2ccc(Br)cc2F)cc1Cl [CBK267916]  96.662
43. CC(C(=O)NCCN1CCOCC1)N1c2cccc3cccc(c23)S1(=O)=O (stereo not shown) [CBK269911]  96.9628
44. CN(C)CCN(Cc1ccncc1)Cc1ccc(F)cc1F [CBK283094]  97.3164
45. O=C(CSc1nnc(-c2ccncc2)n1-c1ccccc1)c1ccc(Br)cc1 [CBK266758]  97.5519
46. COc1ccc(C(NC(=O)N2CCN(C(=O)OCc3ccccc3)CC2)c2ccccc2C)cn1 (stereo not shown) [CBK081469]  97.7345
47. CCc1noc(C)c1C(=O)NCCN1CCCCC1C (stereo not shown) [CBK282219]  98.8361
48. CNC(=O)C1(Cc2ccc(-c3ccccc3)cc2)CCN(C(=O)c2ccccc2OC)CC1 [CBK285767]  100.114
49. CCN(C(C)COC)S(=O)(=O)c1ccc(C(F)(F)F)nc1 (stereo not shown) [CBK304042]  100.652
50. NC(=O)c1ccc(SCC(=O)O)c([N+](=O)[O-])c1 [CBK034310]  101.525
51. O=C(CCC(=O)c1ccc(Cl)cc1)OCC(=O)c1cccc(I)c1 [CBK264760]  102.384
52. O=C(O)CC1(CC(=O)N2CCN(C(c3ccccc3)c3ccccc3)CC2)CCCC1 [CBK086174]  102.773
53. CCn1c2cc(C)oc2c2cnn(CC(=O)N3CCCCC3)c(=O)c21 [CBK284220]  102.939
54. CN(C(=O)c1ccccc1C(=O)O)C1CC(C)(C)NC(C)(C)C1 [CBK287117]  102.991
55. COCCOc1ccc(-c2noc([C@@H]3CCCN3)n2)cn1 [CBK288883]  104.101
56. COc1ccc(NC(=O)c2csc(Nc3ccccc3)n2)cc1OC [CBK287840]  104.612
57. CNC(=O)c1ccc(-c2ccc(C)c(C)c2)nc1NCCOC [CBK105999]  104.864
58. Cn1ncc2c(C(=O)O)cc(-c3ccccc3)nc21 [CBK288024]  105.189
59. C#CCNC(=O)[C@@H]1Cc2cn(Cc3cc(C)on3)c3cccc(c23)[C@H](CC(C)C)N1 [CBK289426]  107.324
60. Cc1n[nH]c(NNC(=O)COc2ccc(Cl)cc2)c1[N+](=O)[O-] [CBK261478]  107.5
61. FC(F)(F)c1cccc(CN2CCC(N3CCCCC3)CC2)c1 [CBK261855]  107.873
62. O=C(NCc1cccc(C(F)(F)F)c1)N1CCN(c2cc(C(F)(F)F)ccn2)CC1 [CBK156435]  108.627
63. COc1ccc(S(=O)(=O)N(C)CC(=O)Nc2ccccc2C(F)(F)F)cc1OC [CBK266159]  108.759
64. Cc1csc(C(Cc2cccs2)NC(=O)C2CCC(=O)N2)n1 (stereo not shown) [CBK285056]  109.009
65. N=C1NC(=O)C(CC(=O)Nc2ccc(SC(F)F)cc2)S1 (stereo not shown) [CBK265648]  109.057
66. O=C(O)C(Cc1ccccc1)N1C(=O)/C(=C/c2ccc([N+](=O)[O-])cc2)SC1=S (stereo not shown) [CBK263108]  109.355
67. CCCSc1nnc(-c2ccccc2NC(=O)CC)c(O)n1 [CBK265081]  110.686
68. Cc1cc(NC(=O)CC2CCCCC2)nc2c1c(=O)oc1ccccc12 [CBK291151]  110.856
69. Cc1cc(N2C(=O)c3ccc(C(=O)O)cc3C2=O)ccc1NC(=O)c1cccs1 [CBK265415]  111.779
70. CC1CC(C)CN(C(=O)c2ccccc2NC(=O)C2CC(=O)Nc3ccccc32)C1 (stereo not shown) [CBK297760]  111.934
71. CC(C)(C#N)c1ccccc1CN1CCCCC1c1[nH]ncc1C(N)=O (stereo not shown) [CBK304740]  112.012
72. Nn1c(SCC(=O)Nc2ccc3c(c2)oc2ccccc23)nnc1-c1ccc(Cl)cc1Cl [CBK265090]  113.971
73. COC(=O)c1ccccc1NC(=O)c1c(C)c(-c2ccc(C)cc2)nc2ccccc12 [CBK263641]  113.997
74. COc1ccc(NC(=O)CCCSc2nc(N)c3c(C)c(C)sc3n2)cc1 [CBK266547]  117.155
75. O=C(NCCC(c1ccccc1)c1ccco1)C1CCCN1 (stereo not shown) [CBK282499]  119.28
76. Cc1[nH]ncc1C(=O)N1CCn2cc(C(F)(F)F)nc2C1 [CBK282307]  120.727
77. O=C1COc2ccccc2CCCCC2(CCCN(C(=O)CCN3CCCC3=O)C2)CN1 (stereo not shown) [CBK291998]  122.642
78. COC(=O)c1ccccc1NC(=O)CSc1nnc(-c2sc(N)nc2C)o1 [CBK266250]  123.356
79. O=C(CSc1nnc(Cc2ccccc2)o1)Nc1c(Cl)cc(Cl)cc1Cl [CBK266119]  126.227

Source: article PMC12040169 (PLOS Biology, 2025)
